Measurements reported in PMC4336329 (PLoS ONE, 2015).
The whole screen tested about 310,000 compounds, of which about 2,200 (0.71%) showed an effect of 50% or more. The effect is printed as a negative number. The list shows a part of the results.

molecular target: human ether-à-go-go-related gene (hERG) potassium channel (human, UniProt Q12809); experiment: primary screen, population patch clamp on CHO cells stably expressing hERG
Sequence (Q12809 whole entry, looked up): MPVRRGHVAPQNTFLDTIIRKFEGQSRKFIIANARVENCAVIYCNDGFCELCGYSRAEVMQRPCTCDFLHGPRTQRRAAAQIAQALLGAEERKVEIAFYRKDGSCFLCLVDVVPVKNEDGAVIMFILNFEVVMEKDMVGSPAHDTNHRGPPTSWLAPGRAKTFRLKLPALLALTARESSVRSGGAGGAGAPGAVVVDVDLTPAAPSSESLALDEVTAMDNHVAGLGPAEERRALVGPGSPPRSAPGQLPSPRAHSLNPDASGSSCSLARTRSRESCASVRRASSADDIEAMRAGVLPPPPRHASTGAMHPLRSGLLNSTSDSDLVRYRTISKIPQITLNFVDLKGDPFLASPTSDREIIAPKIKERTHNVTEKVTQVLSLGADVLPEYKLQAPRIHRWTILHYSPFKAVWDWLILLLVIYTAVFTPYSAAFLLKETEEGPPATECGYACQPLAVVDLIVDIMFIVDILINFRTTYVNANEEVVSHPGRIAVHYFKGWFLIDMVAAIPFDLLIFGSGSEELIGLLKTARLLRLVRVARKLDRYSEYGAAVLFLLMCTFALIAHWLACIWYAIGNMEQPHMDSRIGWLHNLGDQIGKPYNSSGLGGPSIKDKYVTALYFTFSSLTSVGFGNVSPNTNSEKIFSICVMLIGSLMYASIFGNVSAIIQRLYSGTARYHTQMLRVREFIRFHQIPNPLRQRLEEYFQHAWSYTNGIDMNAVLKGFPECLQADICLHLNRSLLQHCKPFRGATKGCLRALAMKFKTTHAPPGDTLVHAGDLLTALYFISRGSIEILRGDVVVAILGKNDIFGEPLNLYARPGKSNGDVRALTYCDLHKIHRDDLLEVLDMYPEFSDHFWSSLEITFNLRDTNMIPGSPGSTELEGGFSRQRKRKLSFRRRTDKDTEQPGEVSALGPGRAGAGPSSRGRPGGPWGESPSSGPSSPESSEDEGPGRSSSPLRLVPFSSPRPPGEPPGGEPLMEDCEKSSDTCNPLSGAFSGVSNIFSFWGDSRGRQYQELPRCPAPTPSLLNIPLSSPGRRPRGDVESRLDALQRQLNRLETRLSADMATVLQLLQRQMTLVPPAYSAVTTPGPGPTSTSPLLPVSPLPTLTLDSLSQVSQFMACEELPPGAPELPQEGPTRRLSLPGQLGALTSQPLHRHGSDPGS

Structure (SMILES) | hERG current change (%, negative = inhibition) at 1uM
O=C(c1ccc(CN2CCOCC2)cc1)N1CCC(Cc2ccccc2)CC1 | -0.0045%
CCOc1ccc(NC(=O)Cn2c(=O)oc3cc(Cl)ccc32)cc1 | 12.4%
CCCCn1c(SCC2CCCO2)nc2cc(S(N)(=O)=O)ccc21 (stereo not shown) | -9.67%
CC1(C)CC(=O)C(C=NCCN2CCN(C(=O)CCl)CC2)=C(O)C1 | 8.35%
COc1cc(C(=O)NC(=S)NNC(=O)c2ccc3c(c2)OCO3)cc(OC)c1OC | 6.72%
Cc1ccc(/C=C(\C#N)C(=O)Nc2c(C)cccc2C)s1 | 7.54%
COC(=O)c1ccc(S(=O)(=O)N2CCN(C(c3ccccc3)c3ccccc3)CC2)n1C | 4.98%
CCN(CC(=O)NCc1cccs1)C(=O)COc1ccccc1C#N | 11.6%
O=C(CCc1ccccc1)NCc1ccc2c(c1)OCO2 | 8.92%
CC(C)Oc1nc(-c2ccccc2Cl)nc2ccccc12 | 27%
CCNC(=S)N/N=C/c1cccc(/C=N/NC(=S)NCC)c1 | 13%
Cc1ccc(S(=O)(=O)N2CCCC2=O)c(C)c1N(C)S(C)(=O)=O | 16.9%
O=C(CCc1nc2ccccc2c(=O)[nH]1)Nc1ccc(F)c([N+](=O)[O-])c1 | 10.2%
COc1ccc(C(=O)CSc2nc(SC)ns2)cc1OC | 7.49%
CC1CCN(C(=O)c2[nH]cnc2C(=O)Nc2ccc(Cl)cc2)CC1 | 24.6%
CC(=O)Nc1ccc(S(=O)(=O)N(C)c2nc3ccccc3nc2Cl)cc1 | 8.12%
N#CCCn1cc(C(=O)O)c(-c2cccs2)n1 | 18.4%
CCOC(=O)C1=C(O)CCn2c1nc1ccccc12 | 0.404%
CCOC(=O)C1=C(C)NC(C)=C(C(=O)OCC)C1c1ccc(Br)o1 | 9.3%
CC(C)c1c(C(=O)N/N=C/c2cccc(OCc3ccc(F)cc3)c2)nnn1-c1nonc1N | 25.5%
COc1c(/C=C2/C(=O)NC(=O)N(C)C2=O)c(CCN(C)C(=O)c2ccccc2)cc2c1OCO2 | 9.9%
O=C(Nc1cccc(O)c1)c1cnn2cccnc12 | -2.94%
Cn1cccc1Cc1nnc(SCC(=O)Nc2cccc(Cl)c2)n1-c1ccc(F)cc1 | -10.5%

Structure (SMILES) | hERG current change (%, negative = inhibition) at 1uM
CC(=O)Nc1ccc(NC(=O)C2CCN(C(=O)NC3CCCCC3)CC2)cc1 | 14.4%
CSc1nc2ccccc2n1C(=O)Oc1ccccc1 | 3.33%
Cc1cc(Br)c(NC(=O)C(C)Sc2nnnn2C)c(Br)c1 (stereo not shown) | 6.21%
CCC(c1n[nH]c(=S)n1-c1ccccc1)N(C)C (stereo not shown) | 16.3%
CNC(=O)NC(=O)COC(=O)/C=C/c1cccc(Br)c1 | 15.8%
CC(=O)Nc1ncnc2c1c(-c1ccc(Cl)cc1)nn2C(C)(C)C | 4.46%
COc1c2ccc(C(=O)NCCCCc3ccccc3)cc2nn1C | 4.98%
O=P(O)(O)COc1ccccc1O | 11.2%
CC12CCC(C(=O)N3CCOCC3)([C@H](Br)C1=O)C2(C)C (stereo partly shown) | 13.5%
O=C(Nc1ccc2c(c1)C(=O)N(CC1CCCO1)C2=O)c1ccc(Cl)c(Cl)c1 (stereo not shown) | -14.9%
CC1=CCC(C(=O)O)C(C(=O)NC2CCCCC2)C1 (stereo not shown) | 12.2%
CCOc1ccccc1Oc1coc2cc(OC(=O)N(C)C)ccc2c1=O | 13.4%
O=C(NCCN1CCOCC1)c1cc(Sc2cccc(Cl)c2)nc2ccccc12 | -20.6%
CN(Cc1cccs1)C(=O)Cn1cnc2cc([N+](=O)[O-])ccc2c1=O | 16.1%
O=C(Cc1cnc2ncnn2c1)N1CCc2c([nH]c3ccccc23)C1c1ccccn1 (stereo not shown) | 6.54%
COc1cc(NC(=O)c2ccc3c(c2)OCCO3)ccc1NC(=O)c1cccs1 | 4.39%
O=C(CN1CCN(c2ccccc2)CC1)Nc1ccc(OCc2ccccc2)cc1 | 13.4%
Cc1cccc(N(Cc2ccccc2)C(=O)c2cccc(S(=O)(=O)N3CC(C)OC(C)C3)c2)c1 (stereo not shown) | -3.52%
Cc1cccn2c(CN(C)CC3Cc4ccccc4O3)c(C(=O)N3CCCCC3)nc12 (stereo not shown) | 4.15%
COc1ccc(NC(=O)C2=NNC(=O)CC2)cc1S(=O)(=O)N1CCCCC1 | 2.96%
Cc1csc2nc(CNS(=O)(=O)N(C)C)cn12 | 4.85%
Cc1cccc(C(=O)N/N=C/c2ccc[nH]2)c1 | 15.2%
CC(C)c1ccc(C2CC(c3ccc(Br)cc3)=NN2C(N)=S)cc1 (stereo not shown) | 17.3%

Structure (SMILES) | hERG current change (%, negative = inhibition) at 1uM
O=C(Nc1ccc(NC(=O)c2ccco2)cc1)c1ccco1 | 12.7%
CC1(C)CCCC2=C1CC1C(=O)N(N)C(=O)C1C2 (stereo not shown) | 9.08%
CSc1nc(N(C)C)nc(N(C)C#N)n1 | 18.4%
O=C(c1ccccc1)N1CCCCC(Sc2nnnn2-c2ccccc2)C1=O (stereo not shown) | -3.02%
CC(=O)Nc1ccc(Oc2ccccc2)cc1 | 8.93%
Cc1sc(NC(=O)c2sc3nc4c(C)cccc4cc3c2N)c(C#N)c1C | 13.2%
CC(NS(=O)(=O)c1ccccc1)C(=O)Nc1ccc(S(N)(=O)=O)cc1 (stereo not shown) | 9.55%
CN1CCN(S(=O)(=O)c2ccc(NC(=O)c3ccc([N+](=O)[O-])cc3)cc2)CC1 | -5.24%
COc1ccc(NC(=O)Nc2ccc3nccnc3c2)cc1 | 6.75%
O=C(O)C(Cc1ccccc1-c1ccccc1)C(=O)O | 7.65%
N#Cc1ccc(-c2nnnn2-c2ccc3c(c2)OCO3)cc1 | -1.99%
Cc1cc(OCC(O)CN2CCc3ccccc3C2)ccc1Cl.Cl (stereo not shown) | 3.92%
CCN1C(=O)N[C@H](c2ccccc2)C(C(C)=O)=C1C | 16.4%
O=C(COC(=O)/C=C/c1ccc(S(=O)(=O)N2CCOCC2)cc1)NCc1ccc(F)cc1 | -2.79%
O=C1CC(SCCc2nc3ccccc3[nH]2)C(=O)N1c1ccc(F)cc1 (stereo not shown) | 0.751%
CN(C(=O)COC(=O)CNC(=O)C12CC3CC(CC(C3)C1)C2)C1CCS(=O)(=O)C1 (stereo not shown) | 12.1%
Cc1cc(=O)[nH]c(SCc2cn3ccccc3n2)n1 | 9.55%
CCOc1cc(NC(=O)C2CC2)c(OCC)cc1NC(=O)c1ccccc1OCC | -14.4%
COC(=O)c1ccc(NC(=O)COC(=O)C2CC(=O)N(Cc3ccccc3)C2)cc1 (stereo not shown) | 3.54%
C=CCSc1nc2ccccc2[nH]1 | 23.3%
COc1ccc(OC)c(NC(=O)Cc2coc3ccc(C)cc23)c1 | -3.82%
CCOC(=O)C1CCN(C(=O)COc2ccc(S(=O)(=O)NC(C)C)cc2)CC1 | -2.14%
CCOc1ccc(CC(=O)NNC(=S)NC)cc1Br | 20.5%

Structure (SMILES) | hERG current change (%, negative = inhibition) at 1uM
CCN(C(=O)CSc1ccc2ccccc2c1)C1CCS(=O)(=O)C1 (stereo not shown) | 4.61%
Cc1nc2ccc([N+](=O)[O-])cc2[nH]1 | 17.6%
Cc1[nH]nc2c1C(c1cccc(OC(=O)N3CCOCC3)c1)C(C#N)=C(N)O2 (stereo not shown) | 7.11%
c1csc(Cc2nc(-c3ccc(-n4cccc4)cc3)no2)c1 | 7.82%
CC1=C(C(=O)OCC2CCCO2)C(c2coc3ccccc3c2=O)C2=C(CC(C)(C)CC2=O)N1 (stereo not shown) | 1.42%
NS(=O)(=O)c1ccc(Oc2ccc(S(N)(=O)=O)cc2)cc1 | 0.505%
Cc1onc(-c2ccc(Cl)cc2)c1-c1ccnn1S(=O)(=O)c1ccc(Cl)cc1 | 7.92%
Cc1cc(NC(=O)CCn2c(=O)sc3ccccc32)no1 | 0.274%
c1nc2sc3c(c2c2nnnn12)CCC3 | 10.7%
COCc1cc(/C=N\NC(=O)c2ccc(Cl)cc2)ccc1OC | 7.06%
CC(=O)c1ccc(S(=O)(=O)NCc2cccnc2)cc1 | 12.2%
CCOC(=O)C(Cc1ccc(OC)c([N+](=O)[O-])c1)NC(=O)CCC(=O)Nc1ccc(C)cc1 (stereo not shown) | -9.34%
COc1ccccc1C1Nc2ccccc2NC2=C1C(=O)CC(C)(C)C2 (stereo not shown) | 16.4%
CCC(=O)NNC(=O)CSc1nnc(-c2ccccc2)c(-c2ccccc2)n1 | 8.46%
COc1ccc(N=c2sc3ccccc3n2C)cc1 | 13.1%
CC(N=C(NC#N)Nc1ccncc1)C(C)(C)C.O (stereo not shown) | 6.22%
Cc1ccc(S(=O)(=O)N2CCN(CC(=O)Nc3ccc(N4CCOCC4)cc3)CC2)cc1C | 5%
CCn1ncc(Br)c1C(=O)Nc1ccc(Cl)cn1 | -6.08%
N#Cc1ccc(Oc2cc(C(F)(F)F)nc(-c3ccccn3)n2)cc1 | 1.1%
O=C(CN(CCc1ccccc1)S(=O)(=O)c1ccc(Cl)cc1)N/N=C/c1ccc2c(c1)OCO2 | -4.2%
CN(C)S(=O)(=O)Oc1ccc(C(=O)Nc2cccc(Cl)c2)cc1 | 6.59%
Cc1ccc(S(=O)(=O)Cn2nnnc2C(c2ccc(F)cc2)N2CCCCC2)cc1 (stereo not shown) | 4.62%
